This is one part of the list.

T1: UNK ZnF1-3 (human, UniProt Q9C0B0 31-174)
T1 sequence: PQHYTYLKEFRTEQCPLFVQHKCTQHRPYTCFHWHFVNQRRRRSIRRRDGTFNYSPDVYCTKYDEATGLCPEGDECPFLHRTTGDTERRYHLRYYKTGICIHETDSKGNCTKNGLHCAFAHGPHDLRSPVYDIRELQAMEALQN

B1: chr7:151048522:151048523:+_ENSG00000013374_ENST00000566856|hu_mus|hu_hu_hu_mus_True|58_98 (ssRNA)
RNA: GGGAGUUCUACAGUCCGACGAUCCUGUUUCUUAUUUAUGACAAUUUUGAUGUAAUUUUCUUGAAAUCCGAAAGUUUCAGCUAUUUUACACCUCAGGUCUCUACCAGUGACAUGCAAGCGGGUCUCCAACAAGCUUUUCUUAUCCAACAGAGGAUUGAGCAUCA
B2: chr1:231700301:231700302:+_ENSG00000116918_ENST00000366639|hu_hu|FALSE|FALSE (ssRNA)
RNA: GGGAGUUCUACAGUCCGACGAUCGUCAGCCACUCCCAGAAGGUAAUCGACAGGUGUGACUCUCAGUCUCCAAGUACCAAACUGCUUAUCCUGUGCAUCAGAGGAGGGAGUUUUAUUUUCUUUCCCAUUGUCUUCAGUCGUAAACAACAGAGGAUUGAGCAUCA
B3: chr18:56819859:56819860:+_ENSG00000166562_ENST00000588875|hu_mus|hu_hu_hu_mus_True|78_88 (ssRNA)
RNA: GGGAGUUCUACAGUCCGACGAUCAACCUUGAUUACUCUGUGAACUAUUGGAAUGUCUCGUCCUUCAACCUUAAAAACAACUAUUUCACCAGCUCUGAUGGGGUCCUCCCGGAAAUUCGUGAGGAACAGCAGAUCUCCUCUGUGCAACAGAGGAUUGAGCAUCA
B4: chr11:51804979:51804980:-_ENSMUSG00000020390_ENSMUST00000020657|mus_hu|FALSE|FALSE (ssRNA)
RNA: GGGAGUUCUACAGUCCGACGAUCGAUAAAAACCUAACAGUUGGUGGUUUAUUUGGAUAUUCUUCAGAAAAUUCUAUUACUAGUUUAAAAGUACCAUCUUCAAAAGGUGUCCCUUCUGGUCCAAAUAUAACUGCAUUCCACUGCCAACAGAGGAUUGAGCAUCA
B5: chr9:107926503:107926504:+_ENSMUSG00000032594_ENSMUST00000035214|mus_hu|FALSE|FALSE (ssRNA)
RNA: GGGAGUUCUACAGUCCGACGAUCGGGGGCCAGUUGCACACUGAGGGCAGAGGAUGCAGCACAUGGGCCACAAAAGGAGAGCUACAUAGAAGGUCCUGGCCAGGUGAAAGCCAAUGGUCAGAUUCUAUUCAGCUUAUUAUUCUGCAACAGAGGAUUGAGCAUCA
B6: 77531739_77531859_264_3pUTR_ENSG00000048649_ENST00000308488|human|control|control (ssRNA)
RNA: GGGAGUUCUACAGUCCGACGAUCCGCUGCCGCCGCCGUCGCCAUUUUGAACUGGAGGAUGGAGGAGGAGGCGAUGGGGGGGCGGGGGAAGUUGUGGUGCCGAGGGAUGGCAAGGCAACCUUACAGACGACAGGAGGCGCUCUCCAACAGAGGAUUGAGCAUCA
B7: chr22:19452774:19452775:-_ENSG00000070010_ENST00000399523|hu_hu|hu_hu_hu_mus_False|18_58 (ssRNA)
RNA: GGGAGUUCUACAGUCCGACGAUCCUUCUCAUUGUAGUUGAUAGCAAUCACAUCUCCAGUCGUCAGACAGGCGAAGUUCCUAAGUGCAUUUUCUAAUACCGCUUUAGGGUUGGUAAUGUCCAGGAAGUCUGGGCUCUGAGGCUGCAACAGAGGAUUGAGCAUCA
B8: chr7:90019433:90019434:+_ENSMUSG00000057706_ENSMUST00000082237|mus_hu|mus_mus_mus_hu_True|98_98 (ssRNA)
RNA: GGGAGUUCUACAGUCCGACGAUCAAAUAAUACAGUGUCUUUGCCAUUAAGGCCAUACUAAAAUAAAAAGAUUUAACCCAGCUACAAAAAAGUUCACUGAACUUAAAUUAAAAUACUUGUAAACAUCUUUGCAAUAUGAAAUAUCAACAGAGGAUUGAGCAUCA
B9: chr12:105536279:105536280:+_ENSG00000136051_ENST00000332180|hu_hu|motif|central (ssRNA)
RNA: GGGAGUUCUACAGUCCGACGAUCAGCACUGAACAUGUAAUGUAAUCUGGCUGCAUCAACAGCAUUUUCAUAUACAUCAUCGGAAUAAAUUGGGAAGACAGCUCGAUGCCAGUAUAAAAAACAACAGUCACAUUGUGUUUGGACCAACAGAGGAUUGAGCAUCA
B10: 111896111_111896319_11175_CDS_ENSMUSG00000018707_ENSMUST00000018851|mouse|control|control (ssRNA)
RNA: GGGAGUUCUACAGUCCGACGAUCCACCCGGGAGCAGAGGUCUGGUGGGAACUCCACAGUUGGGUCUCGGGUAGACAGAAAGAUGACAAAGGAUGGUGACAGGUCUAUGUCUUGGUCACCGAGGGUAAUCAGCACCCUCCCUCCCAACAGAGGAUUGAGCAUCA
B11: chr4:95690885:95690886:+_ENSMUSG00000028572_ENSMUST00000156910|mus_mus|mus_mus_mus_hu_False|1_68 (ssRNA)
RNA: GGGAGUUCUACAGUCCGACGAUCUUUAGAAAAUGUUAAAUACCAUGCUAAAAUAUUUUCAAAGGCUAGUCUUAUUUUACCAGAAGUCACAGGCAAGCAGACACUACAAGAAUAUAUGAAAAUGAAACUCAACAAUAAAAUGUACAACAGAGGAUUGAGCAUCA
B12: chr14:89338683:89338684:+_ENSG00000165533_ENST00000346301|hu_hu|hu_hu_hu_mus_False|48_108 (ssRNA)
RNA: GGGAGUUCUACAGUCCGACGAUCGUGGUUGUUGUUGACCAGGGCCAGCCUGAAGCAUUGGUGGGCCAAGUUUGUAUCUCCGAUUCCCACAGCUACAUGCCCCAGGUUGUACCAGACAUCAGCUGCCUCUUCUUCAUUUUCAGCCAACAGAGGAUUGAGCAUCA
B13: chr14:62207481:62207482:+_ENSG00000100644_ENST00000337138|hu_hu|FALSE|FALSE (ssRNA)
RNA: GGGAGUUCUACAGUCCGACGAUCGGAACGUAACUGGAAGUCAUCAUCCAUUGGGAUAUAGGGAGCUAACAUCUCCAAGUCUAAAUCUGUGUCCUGAGUAGAAAAUGGGUUCUUUGCUUCUGUGUCUUCAGCAAAAAGUUUUUCCAACAGAGGAUUGAGCAUCA
B14: chrX:71549762:71549763:+_ENSMUSG00000019087_ENSMUST00000019231|mus_mus|mus_mus_mus_hu_False|28_38 (ssRNA)
RNA: GGGAGUUCUACAGUCCGACGAUCAAACCCGUGUACUUCUUAUUGUUAGCACAACAUCACCAGAAAACGAUAACGACAGCCAAGCAGGACAGACAGUCAAGUAGUCUUUCCACACCUCCAAACUCAGGGAGCCCUAUAACCUUACAACAGAGGAUUGAGCAUCA

The target of this assay is T1, UNK ZnF1-3. In words: nsRBNS (natural sequence RNA bind-n-seq); RBNS binding buffer (assumed for nsRBNS): 25 mM Tris pH 7.5, 150 mM KCl, 3 mM MgCl2, 0.01% Triton X-100, 500 ug/ml BSA, 20 U/ml SUPERase-In, 4 C; UNK is unkempt and MSI1 is Musashi-1; names of the RNAs are library labels; protein concentration not given here; high values mean tight binding.
With B1, the binding signal turned out to be 0.751 enrichment R. As for B2, the figure is 1.51 enrichment R; as for B3, 0.768 enrichment R. As for B4, the figure is 0.947 enrichment R. The molecule B5 yielded a binding signal of 1.75 enrichment R.

As to B6, the binding signal was found to be 1.5 enrichment R. As for B7, the figure is 0.653 enrichment R; as for B8, 2.83 enrichment R. The molecule B9 returned a binding signal of 1.81 enrichment R. As for B10, the figure is 1.09 enrichment R; as for B11, 1.09 enrichment R; as for B12, 0.538 enrichment R. As for B13, the binding signal turned out to be 1.21 enrichment R.

B14: the binding signal stood at 1.3 enrichment R.

These data come from article PMC12136788.
